# Measured values as given in PMC10668032.
# This is one part of the list. At the low end of the ranking, values are background and their order means little.
# Target: SIX1-Q177R homeodomain (UniProt Q15475)
# Experiment: universal protein binding microarray
# Conditions: Universal all-10-mer PBM (8x60K, AMADID 030236), 300 nM GST-tagged protein, Alexa Fluor 488 anti-GST; buffer, salt, pH and temperature not stated; high values mean tight binding; most listed sequences are background and not binding sites; double strand, one strand shown
row,Sequence,binding signal [E-score]
1,CATGGTAG,-0.0704
2,GGGGTCGA,0.298
3,CCTATCAC,0.173
4,AGTCAGCG,-0.146
5,CGAACCCG,0.112
6,AATCTGAC,0.17
7,CTAAGAGA,-0.177
8,ACTCAGTG,0.135
9,CGCAGCAG,-0.208
10,AACAGGAA,-0.0144
11,CGGCTCAA,0.0565
12,GATCCCAC,0.24
13,ACACACAA,0.244
14,CCAGTTCG,-0.0554
15,ATTGCTCC,-0.213
16,ACGCTTTG,0.0347
17,ACATCCAG,-0.0413
18,ATTCCTGC,0.0939
19,CAATACAA,-0.0858
20,AGCTAAGA,-0.202
21,ATGATATC,-0.0815
22,AAACGAAT,-0.287

row,Sequence,binding signal [E-score]
1,GCTCAAAA,-0.16
2,AGACTGAT,-0.0904
3,CGAGCCGC,-0.157
4,CAAGGACA,0.194
5,AGGGCGAG,-0.0475
6,AAGCCCGA,-0.126
7,GCAGAAGC,-0.165
8,CATGTACC,-0.0151
9,AACGTGGC,-0.161
10,CCCTGTTC,0.13
11,AACAGAAG,-0.206
12,CAGAGCAG,-0.107
13,CCCATTCC,-0.0708
14,AATGAGCT,-0.11
15,GCCGAGCA,-0.292
16,GCCTAGGA,-0.26
17,AGTCTGCC,-0.0721
18,CAACACCG,0.467
19,AGGGCGCC,-0.067
20,GTAGCGAC,0.113
21,TCTTGCAA,-0.0994
22,GCCGCACC,0.157

row,Sequence,binding signal [E-score]
1,AACACCAG,0.465
2,TAAACGGA,-0.0317
3,CGTAGACC,-0.0214
4,AGATATTA,-0.23
5,AATGTTCC,-0.191
6,ATCAGGGG,0.0933
7,CGTCCGAC,-0.00297
8,GGCGTGCA,0.0176
9,GTTGGACA,0.245
10,ACCTGTTA,0.0872
11,AGGAGGTC,0.0221
12,CTACCAAG,-0.0313
13,GACCCTAC,0.116
14,ATGAGTCC,-0.0865
15,GTCATATA,0.0597
16,ATTTTCTG,-0.252
17,AGGCCATG,-0.0955
18,CTTCGAGA,-0.213
19,GATACTGC,0.158
20,AGCGCACA,-0.039
21,AACCACGA,0.0662
22,AACATAAA,-0.212

row,Sequence,binding signal [E-score]
1,CCATCTCG,0.117
2,CTGGAGTA,0.125
3,CTGCCCGC,0.163
4,GCGCGTTA,0.0713
5,GGTAACAA,-0.156
6,CAGGAGGA,0.0407
7,AACATGAT,-0.205
8,GCCCCACC,0.0163
9,ACCTTCGA,0.037
10,AGACTTCG,-0.131
11,TCCGAGAA,-0.127
12,ATATTCTG,-0.0385
13,AATCATTA,-0.114
14,AACCTATT,-0.195
15,ATTGTCCG,-0.128
16,AAGGCAGG,0.0787
17,ACGCTGTA,-0.0745
18,AAGGCAAG,-0.217
19,GTCCTAAA,-0.0977
20,AAGTTAAG,-0.182
